Results taken from the supplement of paper PMC10126150.
Values marked as one replicate rest on one cluster of the flow cell; about a third of the high ones do not repeat.

Each sequence was assayed on ATP (assay: switch fluorescence ratio, 500 uM ATP over buffer (Cy3 cluster intensity, sum of 5 cycles each) (fold (ratio)); higher = stronger signal-on switching upon ATP binding; sequences stand for … in TCGTCGGCAGCGTCAGATGTGTATAAGAGACAGTTTTTTTTTTTTTTTTTTTTTTTTT…TC). Conditions: aptamer strand: ATP DNA aptamer (quencher-CACCTGGGGGAGTATTGCGGAGGAAGG + anchor), 100 nM annealed; ATP concentration: 500 uM; one replicate.
Summary of the method: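 Values give the fluorescence ratio for each switch-domain sequence, averaged from per-cluster ratios of summed target-cycle to summed buffer-cycle Cy3 intensity. The Cy3-labelled switching-strand clusters sat on a modified Illumina MiSeq flow-cell, were annealed to 100 nM quencher-labelled ATP aptamer, and were imaged in selection buffer, then after 15 min with 500 uM ATP at 22 °C. Five cycles ran with NaOH stripping and re-annealing between them, and clusters outside 100-1000 RFU were excluded.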
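Note: ATP exposure 15 min at 22 °C before imaging.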

Sequence | switch fluorescence ratio
GAAATCTCCG | 1.17
GAAATGCGGT | 0.997
GAAATGGACG | 1.08
GAAATTACGG | 1.03
GAAATTCATC | 0.971
GAACACGCTG | 1.04
GAACACTATA | 1.18
GAACAGGATG | 1.02
GAACAGGTGG | 1.05
GAACATGTTT | 1.03
GAACCCATGC | 1.24
GAACCGCACT | 1.62
GAACCGGCTG | 1.04
GAACCTACTC | 1.44
GAACGAAGG | 0.992
GAACGAGATC | 0.983
GAACGATGTA | 0.992
GAACGCCCGT | 1.13
GAACGGCTAT | 1.03
GAACGGTACA | 1.46
GAACGTAAAA | 1.07
GAACGTAGTG | 1.04
GAACGTCTGA | 1.05
GAACGTGGGA | 1.07
GAACGTTCGG | 1.02
GAACTAACC | 1.09

Sequence | switch fluorescence ratio
GAACTATGCC | 1.02
GAACTCAGGT | 0.951
GAACTCCGAA | 3.49
GAACTCTTAT | 0.981
GAACTTGACT | 1.03
GAACTTTGTA | 1.02
GAAGACACTA | 1.07
GAAGAGGTGA | 0.942
GAAGATTGTG | 1
GAAGCAAGAA | 2.33
GAAGCACCAG | 1.09
GAAGCGCCTT | 1.02
GAAGCTCGGA | 0.925
GAAGGACGCC | 1.04
GAAGGAGTAA | 1.04
GAAGGCGGTA | 0.992
GAAGGCTGCA | 1
GAAGGGGCAC | 0.973
GAAGGGTAGA | 0.986
GAAGGGTTAA | 1.05
GAAGGTCTAC | 1.09
GAAGGTGTTC | 1.04
GAAGGTTAGA | 0.986
GAAGGTTGCA | 0.999
GAAGTACATA | 1.27
GAAGTCAGGT | 1

Sequence | switch fluorescence ratio
GAAGTCATAT | 1
GAAGTCCTCA | 1.03
GAAGTCGACC | 0.979
GAAGTCGGA | 1.03
GAAGTCGGTC | 1.05
GAAGTCGTCA | 1.01
GAAGTCTAGT | 0.944
GAAGTCTATC | 0.979
GAAGTTCTTT | 1.02
GAAGTTGCTG | 0.955
GAAGTTTATT | 1.05
GAATAACCGT | 0.988
GAATAATGCG | 0.992
GAATACATAA | 1.01
GAATATGGC | 1
GAATATTCA | 0.989
GAATATTTAC | 1.05
GAATCAGGGC | 1.02
GAATCCACAC | 1.12
GAATCCACGC | 1.12
GAATCCATGT | 1.02
GAATCCGGCG | 1.07
GAATCGGCCA | 0.982
GAATCGGCG | 0.92
GAATCTGCTG | 1.06
GAATCTTTTC | 0.98

Sequence | switch fluorescence ratio
GAATGACACT | 1.02
GAATGATACG | 0.964
GAATGATTCG | 0.994
GAATGCCTCG | 1.07
GAATGCGGGG | 1.04
GAATGCTTTT | 1.02
GAATGGCTCT | 0.983
GAATGTCCGA | 0.981
GAATTCAATT | 1.07
GAATTGCGGA | 0.98
GAATTTAATA | 1.02
GAATTTATAG | 0.945
GAATTTCAGC | 1.03
GAATTTCTAA | 0.984
GAATTTGTGT | 0.969
GACAAAGGCC | 1.05
GACAAAGGCT | 1.01
GACAACGTGG | 1.03
GACAACTTGC | 1.01
GACAATCTTT | 0.981
GACACACCGT | 1.27
GACACAGCTC | 1.25
GACACGGAGT | 1.02
GACAGCAGTT | 1.14
GACAGGATCC | 1
GACAGGGTGA | 1.09

Sequence | switch fluorescence ratio
GACAGTTGTT | 1.02
GACATAAAGG | 0.963
GACATAATTC | 1.06
GACATAGTCC | 1.04
GACATGTGTG | 1.01
GACATTCTAC | 1.08
GACATTGGCA | 0.968
GACCAAATG | 0.953
GACCAACAC | 1.42
GACCAAGTAT | 0.989
GACCACATAG | 1.01
GACCACATCG | 1
GACCCCCCA | 1.4
GACCCGAACT | 1.05
GACCCGGATA | 1.08
GACCCGTAAA | 1.22
GACCCGTCTT | 1.09
GACCCGTGCT | 1.07
GACCGCCTCG | 1.15
GACCGCGCTT | 1.06
GACCGGTTAC | 1.15
GACCGTTGT | 0.996
GACCTATCAC | 1.09
GACCTCGGTC | 1
GACCTGCTAG | 1.04
GACCTGGCC | 1.11

Sequence | switch fluorescence ratio
GACGAAGGCG | 1.03
GACGACAACA | 1.5
GACGATAGGA | 1.07
GACGCCAT | 1.41
GACGCCCAAT | 3.14
GACGCCTGAG | 1.03
GACGCTAGGC | 2.88
GACGCTCGCC | 1.86
GACGCTTACG | 0.925
GACGCTTTGT | 1.09
GACGGAAGTC | 1.05
GACGGACCTG | 0.998
GACGGAGGGA | 1.22
GACGGAGGTC | 1
GACGGATGGC | 0.948
GACGGGGAAC | 1.05
GACGGGGAT | 1.07
GACGGGGCAA | 1.31
GACGGGGGAG | 0.983
GACGGGTAGG | 0.995
GACGGGTGCT | 1.04
GACGGTATTG | 0.977
GACGGTGATC | 1.03
